The other results are listed elsewhere or left out.
These sequences were tested against no compound (DMSO) (assay: log2 fold change of degron read counts, EGFP-low vs EGFP+ sorted cells; higher = lower degron-EGFP level without compound (poor expression or instability)). Conditions: compound: DMSO control; 18 h.
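Further: jurkat cells carrying a lentiviral library of mutant zinc finger degrons fused to EGFP plus mCherry, mCherry+ cells FACS sorted, degron abundance counted by next-generation sequencing.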

Sequence	log2 fold change of degron read counts
FICEICGRVFTQKGNLLRHIKL	-0.722
FECNQCGHIFTQKGNLLRHIKL	-0.558
FDCDQCGAHFTQKGNLLRHIKL	-2.12
FLCPICGANFTQKGNLLRHIKL	-0.26
FQCPICGANFTQKGNLLRHIKL	0.34
FACNQCGRQFTQKGNLLRHIKL	-0.406
FFCDICGARFTQKGNLLRHIKL	-0.418
FKCNVCGAYFTQKGNLLRHIKL	-0.669
FVCDQCGAHFTQKGNLLRHIKL	-1.53
FDCDICGADFTQKGNLLRHIKL	-0.58
LHCNQCGFRCTQKGNLLRHIKL	0.827
FNCEQCGAPFTQKGNLLRHIKL	-1.65
FTCEQCGATFTQKGNLLRHIKL	-2.67
FHCNVCGALFTQKGNLLRHIKL	-0.0333
FQCDVCGAQFTQKGNLLRHIKL	-1.92
FSCNICGACFTQKGNLLRHIKL	-0.721

Sequence	log2 fold change of degron read counts
FNCNICGASFTQKGNLLRHIKL	-0.587
FMCPICGHEFTQKGNLLRHIKL	0.0313
FRCEICGRFFTQKGNLLRHIKL	-0.128
FTCEICGHKFTQKGNLLRHIKL	-1.38
LICNQCGFLCTQKGNLLRHIKL	1.18
FSCNQCGHCFTQKGNLLRHIKL	-0.112
FRCEQCGAHFTQKGNLLRHIKL	-2.25
FVCEQCGAQFTQKGNLLRHIKL	-2.77
FCCNICGADFTQKGNLLRHIKL	-0.524
FGCNICGAKFTQKGNLLRHIKL	-0.268
FNCSVCGHRFTQKGNLLRHIKL	0.193
FNCEQCGAKFTQKGNLLRHIKL	-2.8
LHCPICGFWCTQKGNLLRHIKL	1.69
FHCDICGAGFTQKGNLLRHIKL	-1.08
FLCEICGAAFTQKGNLLRHIKL	-1.6
FYCPQCGACFTQKGNLLRHIKL	0.00336
